According to the supplement of paper PMC10724272:
MIC of invasive clinical C. tropicalis isolates, CLSI broth microdilution (fluconazole 0.12-256 mg/L, up to 1,024 for the azole-resistant cluster and its neighbour group; other ranges not stated); higher = less susceptible. Call: susceptible or wild type [S] / resistant or non-wild type [R] by CLSI breakpoints or cut-offs; intermediate and dose-dependent carry no call. '<=' and '>=' at the end values are inferred; the source marks only some of them. Isolates are numbered anew.

Legend:
Assay in all cases: CLSI broth microdilution.
[1] = compound: CC[C@H](C)C[C@H](C)CCCCCCCCC(=O)N[C@H]1C[C@@H](O)[C@@H](NCCN)NC(=O)[C@@H]2[C@@H](O)CCN2C(=O)[C@H]([C@H](O)CCN)NC(=O)[C@H]([C@H](O)[C@@H](O)c2ccc(O)cc2)NC(=O)[C@@H]2C[C@@H](O)CN2C(=O)[C@H]([C@@H](C)O)NC1=O [caspofungin]
[2] = compound: CC[C@@H]([C@H](C)O)n1ncn(-c2ccc(N3CCN(c4ccc(OC[C@@H]5CO[C@@](Cn6cncn6)(c6ccc(F)cc6F)C5)cc4)CC3)cc2)c1=O [posaconazole]
[3] = compound: CCCCCOc1ccc(-c2ccc(-c3ccc(C(=O)N[C@H]4C[C@@H](O)[C@@H](O)NC(=O)[C@@H]5[C@@H](O)[C@@H](C)CN5C(=O)[C@H]([C@@H](C)O)NC(=O)[C@H]([C@H](O)[C@@H](O)c5ccc(O)cc5)NC(=O)[C@@H]5C[C@@H](O)CN5C(=O)[C@H]([C@@H](C)O)NC4=O)cc3)cc2)cc1 [anidulafungin]
[4] = compound: CCCCCOc1ccc(-c2cc(-c3ccc(C(=O)N[C@H]4C[C@@H](O)[C@@H](O)NC(=O)[C@@H]5[C@@H](O)[C@@H](C)CN5C(=O)[C@H]([C@H](O)CC(N)=O)NC(=O)[C@H]([C@H](O)[C@@H](O)c5ccc(O)c(OS(=O)(=O)O)c5)NC(=O)[C@@H]5C[C@@H](O)CN5C(=O)[C@H]([C@@H](C)O)NC4=O)cc3)no2)cc1 [micafungin]
[5] = compound: C[C@@H](c1ncncc1F)[C@](O)(Cn1cncn1)c1ccc(F)cc1F [voriconazole]
[6] = compound: Nc1[nH]c(=O)ncc1F [flucytosine]
[7] = compound: CCC(C)n1ncn(-c2ccc(N3CCN(c4ccc(OCC5COC(Cn6cncn6)(c6ccc(Cl)cc6Cl)O5)cc4)CC3)cc2)c1=O [itraconazole]
[8] = compound: C[C@@H]1[C@H](O)[C@@H](C)/C=C/C=C/C=C/C=C/C=C/C=C/C=C/[C@H](O[C@@H]2O[C@H](C)[C@@H](O)[C@H](N)[C@@H]2O)C[C@@H]2O[C@](O)(C[C@@H](O)C[C@@H](O)[C@H](O)CC[C@@H](O)C[C@@H](O)CC(=O)O[C@H]1C)C[C@H](O)[C@H]2C(=O)O [amphotericin B]
[9] = compound: OC(Cn1cncn1)(Cn1cncn1)c1ccc(F)cc1F [fluconazole]

Test System | MIC [1] | MIC [2] | MIC [3] | MIC [4] | MIC [5] | MIC [6] | MIC [7] | MIC [8] | MIC [9]
Candida tropicalis isolate 149 (ERG11 copies: 8, Erg11p: Y132F, S154F (heterozygous)) | 0.03 mg/L [S] | 1 mg/L [R] | 0.12 mg/L [S] | 0.03 mg/L [S] | ≥ 8 mg/L [R] | ≤ 0.06 mg/L [S] | 1 mg/L [R] | 0.5 mg/L [S] | 512 mg/L [R]
Candida tropicalis isolate 352 (ERG11 copies: 2, Erg11p: no key change) | 0.03 mg/L [S] | 0.5 mg/L [R] | 0.03 mg/L [S] | 0.03 mg/L [S] | 0.25 µg/mL | ≤ 0.06 mg/L [S] | 0.25 mg/L [S] | 2 mg/L [S] | 2 mg/L [S]
Candida tropicalis isolate 261 (ERG11 copies: 8, Erg11p: Y132F, S154F (heterozygous)) | 0.03 mg/L [S] | 0.5 mg/L [R] | 0.03 mg/L [S] | 0.03 mg/L [S] | ≥ 8 mg/L [R] | ≤ 0.06 mg/L [S] | 0.5 mg/L [S] | 1 mg/L [S] | 512 mg/L [R]
Candida tropicalis isolate 302 (ERG11 copies: 2, Erg11p: no key change) | 0.25 mg/L [S] | 0.12 mg/L [S] | 0.25 mg/L [S] | 0.03 mg/L [S] | 0.06 mg/L [S] | ≤ 0.06 mg/L [S] | 0.12 mg/L [S] | 1 mg/L [S] | 2 mg/L [S]
Candida tropicalis isolate 64 (ERG11 copies: 2, Erg11p: no key change) | 0.03 mg/L [S] | 0.06 mg/L [S] | ≤ 0.015 mg/L [S] | 0.03 mg/L [S] | 0.03 mg/L [S] | ≤ 0.06 mg/L [S] | 0.06 mg/L [S] | 0.5 mg/L [S] | 1 mg/L [S]
Candida tropicalis isolate 272 (ERG11 copies: 2, Erg11p: no key change) | 0.06 mg/L [S] | ≥ 8 mg/L [R] | 0.06 mg/L [S] | 0.015 mg/L [S] | ≥ 8 mg/L [R] | ≤ 0.06 mg/L [S] | ≥ 16 mg/L [R] | 1 mg/L [S] | 128 mg/L [R]
Candida tropicalis isolate 176 (ERG11 copies: 2, Erg11p: no key change) | 0.015 mg/L [S] | 0.12 mg/L [S] | 0.03 mg/L [S] | 0.03 mg/L [S] | 0.12 mg/L [S] | ≤ 0.06 mg/L [S] | 0.12 mg/L [S] | 1 mg/L [S] | 1 mg/L [S]
Candida tropicalis isolate 335 (ERG11 copies: 2, Erg11p: no key change) | 0.06 mg/L [S] | 0.03 mg/L [S] | 0.06 mg/L [S] | 0.015 mg/L [S] | ≤ 0.008 mg/L [S] | 0.12 mg/L [S] | 0.06 mg/L [S] | 1 mg/L [S] | 0.25 mg/L [S]
Candida tropicalis isolate 140 (ERG11 copies: 2, Erg11p: Y132F, S154F (heterozygous)) | 0.03 mg/L [S] | 0.12 mg/L [S] | 0.12 mg/L [S] | 0.03 mg/L [S] | 1 mg/L [R] | ≤ 0.06 mg/L [S] | 0.25 mg/L [S] | 1 mg/L [S] | 16 mg/L [R]
Candida tropicalis isolate 427 (ERG11 copies: 2, Erg11p: no key change) | 0.03 mg/L [S] | 0.25 mg/L [S] | 0.12 mg/L [S] | 0.03 mg/L [S] | 0.12 mg/L [S] | ≤ 0.06 mg/L [S] | 0.25 mg/L [S] | 0.5 mg/L [S] | 1 mg/L [S]
Candida tropicalis isolate 306 (ERG11 copies: 2, Erg11p: no key change) | 0.03 mg/L [S] | 0.12 mg/L [S] | 0.03 mg/L [S] | 0.03 mg/L [S] | 0.12 mg/L [S] | ≤ 0.06 mg/L [S] | 0.12 mg/L [S] | 1 mg/L [S] | 1 mg/L [S]
Candida tropicalis isolate 392 (ERG11 copies: 2, Erg11p: no key change) | 0.06 mg/L [S] | 0.12 mg/L [S] | 0.12 mg/L [S] | 0.03 mg/L [S] | 0.06 mg/L [S] | ≤ 0.06 mg/L [S] | 0.12 mg/L [S] | 1 mg/L [S] | 1 mg/L [S]
Candida tropicalis isolate 138 (ERG11 copies: 2, Erg11p: no key change) | 0.06 mg/L [S] | 0.12 mg/L [S] | ≤ 0.015 mg/L [S] | 0.015 mg/L [S] | 0.03 mg/L [S] | ≤ 0.06 mg/L [S] | 0.12 mg/L [S] | 0.5 mg/L [S] | 1 mg/L [S]
Candida tropicalis isolate 83 (ERG11 copies: 2, Erg11p: no key change) | 0.03 mg/L [S] | 0.25 mg/L [S] | ≤ 0.015 mg/L [S] | 0.015 mg/L [S] | 0.06 mg/L [S] | ≤ 0.06 mg/L [S] | 0.25 mg/L [S] | 0.5 mg/L [S] | 1 mg/L [S]
Candida tropicalis isolate 40 (ERG11 copies: 2, Erg11p: Y132F, S154F (homozygous)) | 0.03 mg/L [S] | 0.12 mg/L [S] | 0.12 mg/L [S] | 0.015 mg/L [S] | 2 mg/L [R] | ≤ 0.06 mg/L [S] | 0.25 mg/L [S] | 0.5 mg/L [S] | 32 mg/L [R]
Candida tropicalis isolate 63 (ERG11 copies: 2, Erg11p: no key change) | 0.25 mg/L [S] | 0.12 mg/L [S] | 0.25 mg/L [S] | 0.06 mg/L [S] | 0.06 mg/L [S] | ≤ 0.06 mg/L [S] | 0.12 mg/L [S] | 0.25 mg/L [S] | 1 mg/L [S]
Candida tropicalis isolate 234 (ERG11 copies: 2, Erg11p: no key change) | 0.03 mg/L [S] | 0.25 mg/L [S] | ≤ 0.015 mg/L [S] | 0.03 mg/L [S] | 0.12 mg/L [S] | ≤ 0.06 mg/L [S] | 0.25 mg/L [S] | 1 mg/L [S] | 1 mg/L [S]
Candida tropicalis isolate 113 (ERG11 copies: 2, Erg11p: no key change) | 0.06 mg/L [S] | 0.015 mg/L [S] | 0.12 mg/L [S] | 0.008 mg/L [S] | ≤ 0.008 mg/L [S] | 0.12 mg/L [S] | 0.03 mg/L [S] | 0.5 mg/L [S] | 0.5 mg/L [S]
